The whole screen tested about 310,000 compounds, of which about 2,200 (0.71%) showed an effect of 50% or more. The effect is printed as a negative number. Some of the results follow.
molecular target: human ether-à-go-go-related gene (hERG) potassium channel (human, UniProt Q12809); test: primary screen, population patch clamp on CHO cells stably expressing hERG
Sequence (Q12809 whole entry, looked up): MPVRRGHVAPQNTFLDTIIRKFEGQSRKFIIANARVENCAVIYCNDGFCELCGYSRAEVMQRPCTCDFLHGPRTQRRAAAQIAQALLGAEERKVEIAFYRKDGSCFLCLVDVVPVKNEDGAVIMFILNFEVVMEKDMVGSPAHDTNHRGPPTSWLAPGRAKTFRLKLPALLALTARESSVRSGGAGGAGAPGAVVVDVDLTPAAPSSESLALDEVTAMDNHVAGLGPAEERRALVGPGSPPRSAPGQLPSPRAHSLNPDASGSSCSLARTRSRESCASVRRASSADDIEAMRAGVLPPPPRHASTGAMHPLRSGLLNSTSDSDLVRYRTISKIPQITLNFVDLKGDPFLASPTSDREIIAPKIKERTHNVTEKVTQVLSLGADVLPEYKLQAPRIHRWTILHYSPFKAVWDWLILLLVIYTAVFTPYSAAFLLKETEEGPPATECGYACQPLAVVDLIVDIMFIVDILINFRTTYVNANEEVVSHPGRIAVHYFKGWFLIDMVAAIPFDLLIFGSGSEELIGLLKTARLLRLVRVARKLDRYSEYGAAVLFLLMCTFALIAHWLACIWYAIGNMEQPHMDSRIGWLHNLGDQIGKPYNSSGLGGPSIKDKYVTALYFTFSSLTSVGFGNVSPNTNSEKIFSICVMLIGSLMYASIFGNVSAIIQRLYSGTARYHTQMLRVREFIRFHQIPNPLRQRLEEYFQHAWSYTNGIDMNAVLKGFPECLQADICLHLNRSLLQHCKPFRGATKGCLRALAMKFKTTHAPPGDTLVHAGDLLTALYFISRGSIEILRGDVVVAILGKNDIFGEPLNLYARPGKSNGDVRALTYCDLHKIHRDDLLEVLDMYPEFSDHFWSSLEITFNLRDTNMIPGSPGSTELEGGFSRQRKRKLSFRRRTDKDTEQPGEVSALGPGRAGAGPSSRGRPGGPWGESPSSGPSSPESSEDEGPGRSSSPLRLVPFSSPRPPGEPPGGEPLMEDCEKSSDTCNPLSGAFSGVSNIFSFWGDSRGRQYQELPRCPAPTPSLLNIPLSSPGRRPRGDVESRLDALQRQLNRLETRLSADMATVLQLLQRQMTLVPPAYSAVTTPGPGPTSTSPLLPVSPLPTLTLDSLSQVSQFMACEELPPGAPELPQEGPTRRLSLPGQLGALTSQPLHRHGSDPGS

SMILES | hERG current change (%, negative = inhibition) at 1uM
CC[C@H](C)Cc1cn([C@@H](CCCN=C(N)N)C(=O)NCCCCCCCCCCC(=O)N2CCNCC2)nn1 | 12.8%
Cc1ccc(COc2coc(CO)cc2=O)cc1 | 2.48%
CCOc1ccc(N2C(=O)C3C(c4ccccc4)=NN(c4ccccc4)C3C2=O)cc1 (stereo not shown) | 5.52%
O=C1CNC(=S)N1Cc1ccc(F)cc1 | 17%
CCOC(=O)c1sc(NC(=O)/C=C/c2cnn(CC)c2C)c(C(=O)OCC)c1C | 15.6%
CCOC(=O)C1C(C)N=C2SCC(=O)N2C1c1cccc(Br)c1 (stereo not shown) | -2.89%
Cc1cc2c(=O)n(Cc3ccco3)c(SCC(=O)N3CCCc4ccccc43)nc2s1 | 0.209%
O=C(NCCc1c[nH]c2ccccc12)c1cnc2n(c1=O)CCS2 | 8.73%
COCCNC(=O)CNS(=O)(=O)c1ccc2nc(C)sc2c1 | 4.83%
Cc1cc(C)cc(C(=O)OCC(=O)NC(=O)NC2CCCC2)c1 | 11.6%
CCc1ccccc1NC(=O)c1nnn(CC(=O)Nc2cccc(C)c2C)c1N | 1.6%
Cc1ccc(S(=O)(=O)NCCC(=O)N2CCN(c3cccc(Cl)c3)CC2)cc1C | 15.2%
CC(=O)Nc1ccc(S(=O)(=O)N(C)CC(=O)NC2=NCCS2)cc1 | 5.78%
Cn1cnc2c1c(=O)n(Cc1cccc(Br)c1)c(=O)n2C | -12.8%
Cc1cc(OCC(=O)N2CCC(C(N)=O)CC2)c2c(C)c(C)c(=O)oc2c1 | 12.9%
CC(C)CC(C(=O)NCc1ccccn1)N1C(=O)c2ccccc2C1=O (stereo not shown) | 12.5%
CN(C)S(=O)(=O)Oc1cccc(C(=O)Nc2ccc([N+](=O)[O-])cc2)c1 | 14.3%
COc1cc(C(=S)N2CCCC2)ccc1OCc1ccccc1 | 9.3%
COc1cccc(O)c1CN1CCC(C(=O)Nc2ccc(Oc3cccnc3)cc2)CC1 | -0.888%
Cc1ccc(C(C(=O)NC2CCCCC2)N(C(=O)Cc2c[nH]c3ccccc23)c2ccccc2)o1 (stereo not shown) | 7.19%
CCOC(=O)N1CCC(NC(=O)C2CCCCN2S(=O)(=O)c2ccc(F)cc2)CC1 (stereo not shown) | 10.9%
CC(NC(=O)Nc1nnc(C(F)(F)F)s1)N1C(=O)C2C3C=CC(C3)C2C1=O (stereo not shown) | -14.7%

SMILES | hERG current change (%, negative = inhibition) at 1uM
Cc1c(/C=C2\SC(=O)N(CC(=O)Nc3ccc4c(c3)OCO4)C2=O)c2ccccc2n1C | 9.78%
Cc1ccc(-n2c(SCC(=O)NCCN3C(=O)CSC3=O)nnc2-c2ccccc2F)cc1 | 18.8%
O=C(COC(=O)CN1C(=O)COc2ccccc21)NC1CCCCC1 | 1.52%
Cc1ccc(CCNC(=O)C2CCCN2S(=O)(=O)c2ccc3c(c2)CCC(=O)N3)cc1 (stereo not shown) | -5.74%
CC(=O)Nc1ccc(S(=O)(=O)N(C)CC(=O)Nc2ccc(Br)cc2F)cc1 | 6.13%
COc1ccc(CCNC(=O)C/C(C)=N/NC(=O)c2cnccn2)cc1 | 15.7%
CCC(=O)Nc1cccc(NC(=S)NC(=O)c2cc3ccccc3o2)c1 | 17.5%
CN1C2=NCCN2C(=O)c2cc(Cl)ccc21 | 11.9%
Cc1cc(C(=O)NP(=O)(N2CCOCC2)N2CCOCC2)c(C)n1C1CC1 | 7.72%
COc1ccc(CN(C)Cc2c(O)ccc3ccccc23)cc1 | 2.84%
Cn1c(=O)c(C(=O)COc2ccc(C#N)cc2)c(N)n(Cc2ccccc2)c1=O | -2.83%
CCCC(=O)Nc1c(-c2ccccc2Cl)c(=O)c2ccccc2n1C | 21.7%
CC(Sc1nnc2ccccn12)C(N)=O (stereo not shown) | 6.22%
CC1CCC(=C(C#N)C(=O)Nc2cccc(Cl)c2)CC1 (stereo not shown) | 10.6%
CC(NC(=O)c1cccnc1)C(c1cccs1)N1CCN(C)CC1 (stereo not shown) | 8.63%
Cc1cc(C)cc(NC(=O)COC(=O)c2ccc(CN3CCCC3=O)cc2)c1 | -2.11%
CC1(C)NC(=O)N(CCCCOc2ccccc2[N+](=O)[O-])C1=O | 2.48%
CCOC(=O)c1oc2ccc(S(=O)(=O)n3nc(-c4ccc(Cl)cc4)cc3N)cc2c1C | 6.88%
CCOC(=O)C1CCN(S(=O)(=O)c2ccc(OCC)cc2)CC1 | -8.01%
CCn1c(SCC(=O)Nc2nccs2)nnc1-c1ccccn1 | 7.72%
COc1ccccc1C(=O)NNC(=O)C(=O)Nc1ccc(C)cc1 | 13.5%
Cn1c(=O)c(=O)n(C)c2cc(S(=O)(=O)N3CCCC3C(=O)NCc3cccnc3)ccc21 (stereo not shown) | 6.41%

SMILES | hERG current change (%, negative = inhibition) at 1uM
CN(C(=O)CSc1nnc(Nc2ccccc2)s1)c1c(N)n(Cc2ccccc2)c(=O)[nH]c1=O | 11.7%
O=C(Nc1ccc(Cl)cc1)[C@@H]1[C@@H]2C(=O)N(c3cccc(F)c3)C(=O)[C@@H]2[C@H]2C=CC=NN21 | -0.0466%
CCOc1ccccc1C1C(C(=O)OC)=CN(C)C=C1C(=O)OC | 10.4%
COc1ccc(C2C(=O)c3ccccc3C2=O)c(OC)c1 | 5.28%
COc1ccc(NC(=O)COC(=O)/C=C/C(=O)OCC(=O)Nc2ccc(OC)c(Cl)c2)cc1Cl | 17.5%
O=C(NC(Cc1ccccc1)C(=O)O)/C(=C/c1ccc([N+](=O)[O-])cc1)NC(=O)c1ccc(Br)o1 (stereo not shown) | 12.9%
COc1cc(/C=N/Nc2ccc(Cl)c(C(=O)O)c2)ccc1OC(=O)c1ccc(F)cc1 | 4.99%
O=C(Nc1ccccc1C(=O)N1CCCCCC1)c1ccccc1 | 12.9%
COCCNCC#CCOc1ccc(OC)cc1 | 4.32%
O=S(=O)(Cc1ccccc1)N1CCN(c2ccccc2)CC1 | 9.65%
CN1C(C(=O)NCc2ccccc2)CC2Cn3c(nc4cc(Cl)c(Cl)cc43)C21 (stereo not shown) | -11.5%
COc1ccc(N(CC(=O)NC(C)c2ccccc2)S(=O)(=O)c2ccc(C)cc2)cc1 (stereo not shown) | 0.245%
Cc1cc(C)cc(N(CC(=O)Nc2ccccc2-c2ccccc2)S(=O)(=O)c2ccccc2)c1 | 14.7%
CCOC(=O)C1=C(O)/C(=C/c2cn(CC(=O)NCC3CCCO3)c3ccccc23)SC1=Nc1ccc(C)cc1 (stereo not shown) | 4.15%
CCc1nnc(NC(=O)C2c3ccccc3Oc3ccccc32)s1 | 6.86%
O=C(CS(=O)(=O)Cc1ccccc1)Nc1nnc(C2CCCCC2)s1 | -11.9%
Cc1ccc(-c2ccc(/C=N/NC(=O)CN3CCOCC3)o2)cc1[N+](=O)[O-] | -6.02%
COc1ccc(CN2C(=O)NC3(CCCc4ccccc43)C2=O)cc1F (stereo not shown) | 0.226%
C/C(=N\NC(=O)C1CCCN(S(=O)(=O)c2ccccc2)C1)c1cccnc1 (stereo not shown) | 6.08%
CCN(CC(=O)Nc1ccc(OC(F)F)cc1)C1CCCCC1 | -61.6%
CC(C)(O)C#Cc1ccccc1C(=O)NC(CC(N)=O)C(=O)O (stereo not shown) | 12.1%
CCCn1c(N2CCN(CC(=O)NCc3cccs3)CC2)nc2ccccc21 | -62.7%

SMILES | hERG current change (%, negative = inhibition) at 1uM
COCCCN(C(=O)CC1OC(=O)c2ccccc21)c1c(N)n(Cc2ccccc2)c(=O)[nH]c1=O (stereo not shown) | 17.8%
O=C(NCCOc1ccccc1)c1cc([N+](=O)[O-])ccc1N1CCOCC1 | -26.2%
CCc1nnc(NC(=O)CSc2nnc(-c3cccnc3)n2CCc2ccccc2)s1 | -2.58%
O=c1[nH]c(N/N=C\c2ccc3c(c2)OCO3)nc2ccccc12 | -0.163%
CCCCn1c(SCC(=O)NC(C)(C)C)nnc1-c1ccco1 | 11%
CC1(C)CC(=O)C2=C(C1)NCN(CCCN1CCOCC1)C2 | 16%
O=S(=O)(NCCC1CC1(Cl)Cl)c1ccccc1 (stereo not shown) | 12.4%
CCOC(=O)C1C2C=CC3(CN(Cc4cccs4)C(=O)C13)O2 (stereo not shown) | 6.24%
CCC(=O)N(CCCN(C)C)c1nc(-c2cc(OC)ccc2OC)cs1.Cl | -8.76%
CCc1[nH]nc2c1C(c1ccc(C)o1)C(C#N)=C(N)O2 (stereo not shown) | 4.78%
O=C(Cn1c(CC(=O)N2CCOCC2)nc2ccccc21)Nc1ccc2c(c1)OC(F)(F)O2 | 4.31%
O=C(NCCc1ccc(Cl)cc1)c1ccc2[nH]c(=O)c(=O)[nH]c2c1 | 11%
COC(=O)c1c(NC(=O)CSc2nnnn2-c2ccccc2)sc2c1CCC(C)C2 (stereo not shown) | 13.1%
NS(=O)(=O)c1ccc(NC(=O)COC(=O)CCC2CCCCC2)cc1 | 2.15%
Cc1cc(C)cc(NC(=S)N2CCCC2)c1 | 16.2%
O=C(O)C1CCCN1S(=O)(=O)c1ccc(Br)s1.O=C(O)[C@@H]1CCCN1 (stereo not shown) | 12.4%
CN(C(=O)COC(=O)c1cc2ccccc2cc1O)c1c(N)n(Cc2ccccc2)c(=O)[nH]c1=O | -1.89%
CCC1(c2ccccc2)NC(=O)N(CC(=O)Nc2nnc(C3CC3)s2)C1=O (stereo not shown) | 8.22%
OC1C2(Cc3ccccc3)CN3CCN(C2)CC1(Cc1ccccc1)C3 (stereo not shown) | 11.5%

From paper PMC4336329 (PLoS ONE, 2015)
